Article PMC10668032
Some of the results follow. At the low end of the ranking the order means little.

biological target: SIX1-Q177R homeodomain (UniProt Q15475); test: universal protein binding microarray; conditions: Universal all-10-mer PBM (8x60K, AMADID 030236), 300 nM GST-tagged protein, Alexa Fluor 488 anti-GST; buffer, salt, pH and temperature not stated; high values mean tight binding; most listed sequences are background and not binding sites; double strand, one strand shown

Row | Sequence | binding signal
1 | ATCATATA | -0.0383 E-score
2 | CGCCCTTA | -0.155 E-score
3 | AAGACACA | 0.174 E-score
4 | GGGTGCCA | 0.2 E-score
5 | CTATTTCC | -0.148 E-score
6 | GATAGGGC | -0.27 E-score
7 | ATCCGACG | 0.0169 E-score
8 | AGAATTGC | -0.242 E-score
9 | ACCGGTGG | -0.00441 E-score
10 | ATGACGGC | -0.316 E-score
11 | GGTAGTGA | 0.103 E-score
12 | GGAAGGAA | -0.0414 E-score
13 | AGGCAACT | -0.151 E-score
14 | TATCGATA | -0.0766 E-score
15 | GCCTCCGC | 0.0572 E-score
16 | ATGTGCGA | -0.233 E-score
17 | CCATATGG | 0.0864 E-score
18 | CCCGCAAA | 0.0408 E-score
19 | CGGCTATA | -0.168 E-score
20 | ATCGGACA | 0.0788 E-score
21 | CGGGTTCA | 0.175 E-score
22 | AGCAAGGG | 0.0229 E-score
23 | CACTCACC | 0.242 E-score
24 | TATTTTGA | -0.0961 E-score
25 | GACACGGC | 0.427 E-score

Row | Sequence | binding signal
26 | CTAGTACA | 0.245 E-score
27 | ACAGTCCG | -0.202 E-score
28 | AGCTAGCA | -0.0665 E-score
29 | ACCAGGAT | 0.151 E-score
30 | AAGCTGTA | -0.309 E-score
31 | AATGGATG | -0.203 E-score
32 | ACGGAACC | 0.101 E-score
33 | ATCCTACA | 0.195 E-score
34 | GACGTAAA | -0.108 E-score
35 | GATTTACC | -0.0312 E-score
36 | ATCGTGGC | -0.0687 E-score
37 | CAACGTCA | -0.17 E-score
38 | TACAGGGA | -0.123 E-score
39 | AGGTGTGA | 0.41 E-score
40 | CTCAGACC | -0.26 E-score
41 | CGCATCGA | 0.163 E-score
42 | CATCACAA | -0.116 E-score
43 | GAGACATA | -0.172 E-score
44 | CGCTCTGA | 0.0151 E-score
45 | CAGGTGCC | 0.0486 E-score
46 | CCGCGGCG | 0.0607 E-score
47 | CGTAGGCA | -0.0289 E-score
48 | CGCCTATC | 0.0681 E-score
49 | AGTTAACA | 0.14 E-score
50 | AGGATGAT | 0.0135 E-score

Row | Sequence | binding signal
51 | AGTTGATC | 0.106 E-score
52 | AGATCTTC | -0.0134 E-score
53 | CATGCGTC | -0.162 E-score
54 | AGTCTCGC | -0.15 E-score
55 | GGAATCCA | -0.0217 E-score
56 | AGTTGCAC | 0.208 E-score
57 | CGTGATTC | -0.185 E-score
58 | TATATTCA | -0.0305 E-score
59 | AGTTTTAC | -0.0911 E-score
60 | AAGCTTTC | -0.188 E-score
61 | AACGGAGT | 0.152 E-score
62 | CAACGATA | -0.139 E-score
63 | AGCTTAGA | 0.0635 E-score
64 | AGGGGAGA | -0.164 E-score
65 | CCGGTGGA | 0.0977 E-score
66 | GTCAAGGA | 0.148 E-score
67 | ATCAAGCA | -0.139 E-score
68 | AACTGAGA | -0.0668 E-score
69 | CAGACCTA | -0.227 E-score
70 | CACATTTA | 0.0273 E-score
71 | CTAACCAC | 0.0865 E-score
72 | GAACGGAA | -0.14 E-score
73 | CCTTCTAA | -0.108 E-score
74 | ATTTTTGC | -0.143 E-score
75 | GACTACAA | -0.117 E-score

Row | Sequence | binding signal
76 | GGATATCA | -0.0403 E-score
77 | GCAAGGCC | -0.235 E-score
78 | GGAGGCGA | -0.0896 E-score
79 | GGGAGACC | 0.00473 E-score
80 | ACTACGTA | -0.181 E-score
81 | ATCACAGA | 0.0524 E-score
82 | TCGGGCCA | -0.0257 E-score
83 | AACCGGAG | -0.0204 E-score
84 | CGCTCGTC | -0.127 E-score
85 | ACAGACAC | 0.392 E-score
86 | AGTAAATC | -0.036 E-score
87 | ACGATAAT | -0.113 E-score
88 | ATTCGATA | -0.0559 E-score
89 | CATGAGAA | -0.123 E-score
90 | CGAGCGCC | 0.103 E-score
91 | CCTGTTAA | 0.0373 E-score
92 | ATCTTGCC | -0.214 E-score
93 | CACAAGAG | 0.0597 E-score
94 | ATTTATTA | -0.127 E-score
95 | GTTGATAA | 0.038 E-score
96 | CTCTGACA | 0.143 E-score
97 | GGTCTACA | 0.143 E-score
98 | CGCTCCCC | -0.127 E-score
99 | GAGGGCAA | -0.078 E-score
100 | CGTCCCAA | -0.197 E-score

Row | Sequence | binding signal
101 | ATGCTCCC | -0.196 E-score
102 | CGACCACG | -0.23 E-score
103 | CAGAGCAC | 0.19 E-score
104 | TACGCAAA | -0.073 E-score
105 | GCCCCATA | -0.0822 E-score
106 | ACCTCTAA | -0.126 E-score
107 | TGGCATAA | 0.152 E-score
108 | ACCGGGCG | 0.197 E-score
109 | CTCTCTGA | 0.0838 E-score
110 | AATTCCGG | 0.0307 E-score
111 | ACTTTATG | -0.0956 E-score
112 | GTCTCTAA | -0.161 E-score
113 | TCCCCACA | -0.0623 E-score
114 | CAGTAATG | -0.0785 E-score
115 | ATTAACGA | -0.0496 E-score
116 | ATGTATCA | -0.00998 E-score
117 | ATCCCGAT | 0.113 E-score
118 | CTCGCTCC | -0.0142 E-score
119 | AGGCATGC | -0.262 E-score
120 | CCAATCCG | -0.0193 E-score
121 | CATTCTCG | -0.138 E-score
122 | CGCGGAGC | 0.00858 E-score
123 | CATTATAG | -0.155 E-score
124 | AGTAAAAT | -0.0899 E-score
125 | ATGACTAA | -0.157 E-score

Row | Sequence | binding signal
126 | TCGATCCA | -0.0762 E-score
127 | ACCCCAGA | 0.201 E-score
128 | GAATGCCC | -0.123 E-score
129 | GCGATCAC | 0.0962 E-score
130 | CCCCTAAG | 0.172 E-score
131 | CCCAGAAG | -0.0599 E-score
132 | GGTGAAAC | 0.0627 E-score
133 | CAACCTGA | -0.0569 E-score
134 | TCCACGGA | -0.203 E-score
135 | ACCTTCAG | 0.0819 E-score
136 | GTACACTA | 0.432 E-score
137 | ATTTTGGG | -0.222 E-score
138 | GCTGGGCA | -0.0944 E-score
139 | GCGGCCCC | -0.162 E-score
140 | ACATTATC | 0.0847 E-score
141 | GTGGAAGA | -0.113 E-score
142 | AGGTTTAT | -0.0717 E-score
143 | GGCGCCCC | -0.127 E-score
144 | CCCTTGTC | -0.0046 E-score
145 | CAATGCTG | -0.0836 E-score
146 | AACGTACA | 0.185 E-score
147 | GCCTCCCC | -0.0247 E-score
148 | GACTCACA | -0.0653 E-score
149 | GAGCAGGC | -0.123 E-score
150 | ACCGCCTC | -0.0778 E-score

Row | Sequence | binding signal
151 | AATTCCGC | -0.245 E-score
152 | ATACTGAC | -0.0543 E-score
153 | TAGGCACA | -0.0381 E-score
154 | GTCCAGAC | 0.0235 E-score
155 | ATCTCATC | -0.0463 E-score
156 | CCTAACTA | -0.0368 E-score
157 | GTTCAAGA | -0.163 E-score
158 | ATACGGCA | 0.0363 E-score
159 | CTCCGGCC | -0.0912 E-score
160 | AATGAAAG | -0.133 E-score
161 | CATAAGAG | -0.139 E-score
162 | AGAGTCCC | -0.0999 E-score
163 | AGTGAATG | -0.0081 E-score
164 | ATTACTTG | -0.00398 E-score
165 | AAGGCTCT | -0.306 E-score
166 | CGGTAGGA | -0.0422 E-score
167 | TAATAACA | 0.00234 E-score
168 | CTTGCAAC | -0.168 E-score
169 | GAATACAC | 0.408 E-score
170 | CCAGAGTC | 0.0461 E-score
171 | GGGCCTAA | -0.0706 E-score
172 | ACTACGCT | -0.0243 E-score
